Reference: the supplement of paper PMC12217912
Some of the results follow. Sequences were assembled here from the parent chain. Values near 0.05 are background.

B1: TEV protease; numbered along this chain (parent)
chain: MGESLFKGPRDYNPISSSICHLTNESDGHTTSLYGIGFGPFIITNKHLFRRNNGTLVVQSLHGVFKVKDTTTLQQHLVDGRDMIIIRMPKDFPPFPQKLKFREPQREERICLVTTNFQTKSMSSMVSDTSCTFPSGDGIFWKHWIQTKDGQCGSPLVSTRDGFIVGIHSASNFTNTNNYFTSVPKNFMELLTNQEAQQWVSGWRLNADSVLWGGHKVFMVKPEEPFQPVKEATQL

Variants of: B1
Test: raw area under fraction-flipped curve 0-4 h after induction (AUC4h, not background-subtracted), DNA-recorder readout of cleavage of the substrate (dimensionless); higher = more cleavage of the substrate by the protease variant
Settings: temperature: 34 °C; time window: 0-4 h after rhamnose induction
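Further: Bxb1 expression induced with 0.2% (w/v) L-rhamnose at OD600 near 0.5, cultures sampled hourly, flipped fraction per protease–substrate barcode pair counted by paired-end Illumina sequencing.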

Variant | area with substrate ENLYDQS | area with substrate ENLYEQS | area with substrate ENLYKQS | area with substrate ENLYNQS | area with substrate ENLYQQS | area with substrate ENLYRQS | area with substrate ENLYSQS | area with substrate ENLYWQS | area with substrate ENLYYQS | area with substrate ENLYCQS | area with substrate ENLYGQS | area with substrate ENLYHQS | area with substrate ENLYIQS | area with substrate ENLYMQS | area with substrate ENLYPQS | area with substrate ENLYVQS | area with substrate ENLYLQS | area with substrate ENLYTQS
A196W | 0.0426 | 0.0484 | 0.0583 | 0.0551 | 0.0714 | 0.0772 | 0.0631 | 0.0556 | 0.0438 |  |  |  |  |  |  |  |  | 
E223Y | 0.0729 | 0.0837 | 0.0393 | 0.068 | 0.0671 | 0.0505 | 0.0659 | 0.083 | 0.0768 | 0.0776 | 0.0602 | 0.0643 | 0.122 | 0.0769 |  |  |  | 
Q59K | 0.0477 | 0.0698 |  | 0.0662 | 0.0532 | 0.0735 | 0.0768 |  |  |  |  |  | 0.119 |  | 0.0695 | 0.164 |  | 
M219T | 0.0624 | 0.0644 | 0.0541 | 0.0819 |  |  |  |  |  |  | 0.0725 | 0.0347 |  | 0.0935 | 0.0642 | 0.075 | 0.078 | 
L99Q | 0.0568 | 0.0593 |  |  |  |  | 0.0652 |  |  |  | 0.0485 | 0.0851 |  | 0.0543 |  | 0.11 |  | 
T23E | 0.103 | 0.0666 | 0.0631 | 0.0727 | 0.0601 |  | 0.0767 | 0.0811 | 0.0738 |  | 0.0616 | 0.0649 | 0.111 | 0.0678 | 0.0862 | 0.0907 |  | 0.0843
I145V | 0.0844 | 0.074 | 0.04 | 0.0693 |  | 0.0583 |  | 0.0932 | 0.0606 |  |  | 0.0755 |  | 0.107 | 0.0487 | 0.148 |  | 
N116L | 0.0517 | 0.0604 |  | 0.0704 |  |  | 0.0669 | 0.0703 | 0.054 |  | 0.0672 | 0.0616 | 0.118 | 0.0816 | 0.115 | 0.113 |  | 
T147R | 0.0608 | 0.0581 | 0.047 | 0.0572 | 0.0673 | 0.0601 | 0.0501 | 0.0572 | 0.0621 |  | 0.0537 | 0.049 |  | 0.0584 | 0.0468 |  |  | 
K90H | 0.0397 | 0.069 | 0.0737 | 0.0641 | 0.0648 | 0.0489 | 0.0593 | 0.0661 | 0.0777 |  | 0.0594 | 0.0713 | 0.112 | 0.0502 | 0.056 | 0.154 | 0.0867 | 0.0834
P94A | 0.0588 | 0.0632 |  |  |  |  |  | 0.0961 |  |  |  | 0.076 |  |  |  | 0.116 |  | 
C131M | 0.0618 | 0.0697 | 0.0713 | 0.065 |  | 0.043 |  | 0.0697 |  |  |  | 0.0444 |  | 0.0737 |  |  |  | 0.0787
K68Y | 0.0539 | 0.0628 | 0.0595 | 0.0982 | 0.0771 | 0.06 | 0.0653 | 0.0753 |  |  | 0.0597 | 0.0649 | 0.111 |  | 0.0614 |  | 0.0748 | 0.0802
I167R | 0.0536 | 0.0343 | 0.0576 | 0.05 | 0.0394 | 0.0435 | 0.0364 |  |  |  | 0.059 | 0.0516 | 0.0305 |  |  |  | 0.0592 | 
N177P | 0.07 | 0.0656 | 0.0471 | 0.0567 | 0.0604 | 0.0667 |  | 0.058 | 0.0683 |  | 0.0553 | 0.0544 | 0.0469 | 0.0768 | 0.0627 |  | 0.0547 | 
V229Q | 0.067 | 0.0612 | 0.0287 | 0.0771 | 0.0564 | 0.06 |  | 0.0884 | 0.067 |  |  | 0.0818 | 0.0904 | 0.0851 |  | 0.113 | 0.0553 | 
L5P | 0.0994 |  |  |  |  |  |  |  |  |  | 0.0651 | 0.0595 |  |  | 0.0646 | 0.0643 |  | 0.0575
F226G | 0.0616 | 0.0502 | 0.0538 | 0.0688 |  | 0.0596 | 0.0676 |  |  |  | 0.057 | 0.0762 | 0.0699 | 0.0418 | 0.074 | 0.0903 | 0.0637 | 0.0979
Q227W | 0.0677 | 0.0628 | 0.0583 | 0.0283 | 0.0793 | 0.054 |  | 0.0805 |  |  | 0.0793 | 0.0631 | 0.13 | 0.0711 | 0.099 | 0.0473 |  | 
K185M | 0.0666 | 0.0555 | 0.0571 | 0.0706 |  | 0.0484 |  | 0.0514 | 0.0668 |  | 0.0644 | 0.0699 | 0.178 | 0.0788 | 0.0852 |  | 0.0908 | 
K185S | 0.0754 | 0.0607 | 0.0892 | 0.0645 | 0.0629 | 0.0538 | 0.0753 | 0.0865 | 0.0665 |  |  | 0.0706 |  |  | 0.0665 |  |  | 0.0617
A170T | 0.063 |  |  | 0.078 |  |  | 0.0616 | 0.051 |  |  |  |  |  |  |  |  |  | 
I110N | 0.0587 | 0.0591 | 0.0548 | 0.0557 |  | 0.0568 | 0.0525 | 0.0514 | 0.0588 |  | 0.0564 | 0.0603 | 0.0468 | 0.0559 | 0.0532 | 0.0538 | 0.0477 | 
E195N | 0.0529 | 0.082 | 0.0722 | 0.0597 |  | 0.0582 |  | 0.0806 |  |  | 0.0752 | 0.0752 |  |  | 0.0261 | 0.122 |  | 
G162F | 0.07 | 0.0312 | 0.071 | 0.0501 | 0.064 |  |  | 0.0777 | 0.0539 |  | 0.062 | 0.06 |  | 0.076 |  |  | 0.0618 | 0.0638
G214D | 0.0589 | 0.0854 | 0.0656 | 0.072 |  | 0.0583 |  |  | 0.0763 |  | 0.0542 | 0.0696 |  | 0.0713 | 0.0575 |  |  | 
I164G | 0.0591 | 0.0573 | 0.0621 | 0.0575 | 0.0549 | 0.0549 | 0.0429 | 0.0317 | 0.063 |  | 0.0625 | 0.0512 |  | 0.059 | 0.0364 | 0.0569 |  | 
V58R | 0.0529 | 0.043 | 0.0633 | 0.0542 |  | 0.0585 |  |  | 0.048 |  | 0.0464 | 0.0468 | 0.0624 | 0.052 | 0.0459 | 0.0471 |  | 
F41G | 0.0421 | 0.0546 |  | 0.0597 | 0.0606 | 0.0381 |  | 0.0688 | 0.0435 |  | 0.0461 | 0.0489 | 0.0842 | 0.0505 | 0.0811 |  | 0.0616 | 
S26R | 0.0607 | 0.0878 | 0.036 | 0.0572 | 0.0663 | 0.0463 | 0.063 | 0.0698 | 0.0488 |  | 0.0544 | 0.0602 | 0.0902 | 0.0613 | 0.045 | 0.0717 |  | 
